Assay results: the supplement of paper PMC12009370
Some of the results follow. Many values rest on one well or one pass, so single values are uncertain.

Experiments:
IMR-32 [1] = experiment: drug sensitivity score (DSS), single drug with vehicle (DSS (score)); higher = more cytotoxic; extreme values may be limits of the assay; details: 72 h; co-treatment: vehicle (DMSO)
SK-N-AS [2] = experiment: as above; details: 72 h; co-treatment: vehicle (DMSO)
SK-N-AS [3] = experiment: drug sensitivity score (DSS) in combination with SL-176 (DSS (score)); higher = more cytotoxic; extreme values may be limits of the assay; details: 72 h; co-treatment: SL-176 11.2 uM (IC25 in IMR-32)
IMR-32 [4] = experiment: as above; details: 72 h; co-treatment: SL-176 11.2 uM (IC25 in IMR-32)
SK-N-AS [5] = experiment: drug sensitivity score (DSS) in combination with GSK2830371 (DSS (score)); neuroblastoma lines; SL-176 and GSK2830371 are WIP1 inhibitors; higher = more cytotoxic; extreme values may be limits of the assay; details: 72 h; co-treatment: GSK2830371 at IC25 in IMR-32
IMR-32 [6] = experiment: as above; details: 72 h; co-treatment: GSK2830371 at IC25 in IMR-32
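For drug sensitivity score (DSS) in combination with GSK2830371 in this document: neuroblastoma cells in 384-well plates, each compound at five concentrations, luminescence read-out, DSS derived from fitted concentration-response curve combining IC50 with minimum and maximum inhibition.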
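For drug sensitivity score (DSS) in combination with SL-176 in this document: cells in 384-well plates, luminescence read-out, each screening drug at five concentrations, DSS derived from the fitted concentration-response curve combining IC50 with minimum and maximum inhibition.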
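For drug sensitivity score (DSS), single drug with vehicle in this document: 384-well screen with five concentrations per compound and a luminescence read-out, DSS computed from the fitted dose-response curve combining IC50 with minimum and maximum inhibition.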

SMILES	drug sensitivity score (IMR-32 [1])	drug sensitivity score (SK-N-AS [2])	drug sensitivity score (SK-N-AS [3])	drug sensitivity score (IMR-32 [4])	drug sensitivity score (SK-N-AS [5])	drug sensitivity score (IMR-32 [6])
O=c1[nH]c(=O)n([C@H]2C[C@H](O)[C@@H](CO)O2)cc1F [Floxuridine]	28.5	5.2	6.3	23.2	6.2	33
CCOC(=O)C1=CCCC[C@H]1S(=O)(=O)Nc1ccc(F)cc1Cl [Resatorvid]	0	0	0	0	0	0
COc1nc(N)nc2c1ncn2[C@@H]1O[C@H](CO)[C@@H](O)[C@@H]1O [Nelarabine]	0.4	0	0	10.5	0	1.2
Nc1cccc2c1CN(C1CCC(=O)NC1=O)C2=O (stereo not given) [Lenalidomide]	9.8	0	0	6.6	0	8.1
COc1cccc2c1C(=O)c1c(O)c3c(c(O)c1C2=O)C[C@@](O)(/C(CO)=N/NC(=O)CCCCCN1C(=O)C=CC1=O)C[C@@H]3O[C@H]1C[C@H](N)[C@H](O)[C@H](C)O1 [Aldoxorubicin]	22.1	8.1	7	22.6	8.5	22.5
COc1cc(N2CCN(C)CC2)ccc1Nc1nccc(-c2cn(C)c3cnccc23)n1	8.8	5.2	4.9	6.6	6.5	8.6
CN1CCc2c(c3ccccc3n2Cc2ccc(C(=O)NO)cc2)C1 [Tubastatin A]	3.9	3.5	2.2	5.5	3.3	5.1
CCCCc1nc2cc(/C=C/C(=O)NO)ccc2n1CCN(CC)CC [Pracinostat]	23.6	17.5	17	22.1	17.5	23.9
CCc1cnn2c(NCc3ccc[n+]([O-])c3)cc(N3CCCC[C@H]3CCO)nc12 [Dinaciclib]	27.9	19.8	19.9	30.4	20.8	30.6
Nc1nccc(-c2c(-c3ccc(F)cc3)ncn2C2CCCCC2)n1	3.3	0.2	0.1	4	1.2	7.1
N#Cc1ccc(COC[C@H]2O[C@@H](n3c(NCc4ccc(Cl)c(Cl)c4)nc4c(N)ncnc43)[C@H](O)[C@@H]2O)cc1	4.5	7.2	8.1	7.7	7.7	7.2
Cc1ccc(C(=O)N(CCCN)[C@@H](c2oc3cc(Cl)ccc3c(=O)c2Cc2ccccc2)C(C)C)cc1	6.8	3	4.6	6.4	3.6	8.3
CN(C)CCCOc1ccc(-c2ccc3ncc4c(c3c2)n(C2CCOCC2)c(=O)n4C)cn1	0	1	0.2	0.3	0.3	0.2
CC(C)[C@H]1C(=O)N[C@@H](CCCNC(=N)N)C(=O)NCC(=O)N[C@@H](CC(=O)O)C(=O)N[C@H](Cc2ccccc2)C(=O)N1C [Cilengitide]	0	0	0	0	0.7	0
Nc1ncnc2c1c(COc1cccc(Cl)c1)nn2C1CCOCC1	0	0	0	0	0	0.2
O=C1CCC(N2C(=O)c3ccccc3C2=O)C(=O)N1 (stereo not given) [Thalidomide]	0	0	0	0	0	0
O=C(Nc1cc(Cl)cc2c1[nH]c1cnccc12)c1cccnc1	3.5	0.1	0.4	0.5	0.4	5
NS(=O)(=O)OC[C@@H]1C[C@@H](n2ccc3c(N[C@H]4CCc5ccccc54)ncnc32)C[C@@H]1O [Pevonedistat]	26.4	7.4	8.6	26	9.5	29.8
C[C@@H]1C=C2C(=O)O[C@@H]3CC[C@H](C1)[C@]23O [Galiellalactone]	9.6	7.5	8	6.5	8	8.4
C[C@H]1O[C@@H](O[C@H]2[C@@H](O)C[C@H](O[C@H]3[C@@H](O)C[C@H](O[C@H]4CC[C@@]5(C)[C@H](CC[C@@H]6[C@@H]5C[C@@H](O)[C@]5(C)[C@@H](C7=CC(=O)OC7)CC[C@]65O)C4)O[C@@H]3C)O[C@@H]2C)C[C@H](O)[C@@H]1O [Digoxin]	15.9	15.1	14.3	13.1	17.5	16.9
O=C(O)c1ccc2c(c1)nc(Nc1cccc(Cl)c1)c1ccncc12 [Silmitasertib]	6.9	5.3	6.3	8.8	6.3	9.4
O=C(NOC[C@H](O)CO)c1ccc(F)c(F)c1Nc1ccc(I)cc1F	0	20.4	20.3	0.5	21.3	0
C=CC(=O)N1CC/C(=C\c2ccc(F)c([N+](=O)[O-])c2)C(=O)/C(=C/c2ccc(F)c([N+](=O)[O-])c2)C1	25.3	26.3	24.9	28.1	26.2	26.9

SMILES	drug sensitivity score (IMR-32 [1])	drug sensitivity score (SK-N-AS [2])	drug sensitivity score (SK-N-AS [3])	drug sensitivity score (IMR-32 [4])	drug sensitivity score (SK-N-AS [5])	drug sensitivity score (IMR-32 [6])
C[C@]1(O)C[C@@H](c2nc(-c3ccc4ccc(-c5ccccc5)nc4c3)c3c(N)nccn32)C1 [Linsitinib]	2.3	2.8	4.2	7.2	1.6	2.4
Nc1ncn([C@@H]2O[C@H](CO)[C@@H](O)[C@H]2O)c(=O)n1 [Azacitidine]	17.7	5.7	5.1	5.2	5.1	10.6
S=C(NCc1ccc2c(c1)OCO2)N1CCN(c2ncnc3c2oc2ccccc23)CC1 [Amuvatinib]	2.7	3	2.5	2.9	4.2	2.4
COc1cccc2c1C(=O)c1c(O)c3c(c(O)c1C2=O)C[C@@](O)(C(=O)CO)C[C@@H]3O[C@H]1C[C@H](N)[C@H](O)[C@H](C)O1 [Doxorubicin]	20.4	8.1	5.8	21.7	7.9	21
CCCC(CCC)C(=O)O [Valproic acid]	0	0	0	0	0	0
C1=N/C2=N/c3ccc(OCCN4CCCC4)c(c3)COC/C=C/COCc3cccc(c3)C(=C1)N2 [Pacritinib]	8.6	10	9.9	8.5	9.5	9.6
C/C(=C\c1csc(C)n1)[C@@H]1C[C@@H]2O[C@]2(C)CCC[C@H](C)[C@H](O)[C@@H](C)C(=O)C(C)(C)[C@@H](O)CC(=O)N1 [Ixabepilone]	6.2	5.3	4.4	6.9	5.6	4.8
CC(C)(O)CNc1nc(Nc2ccnc(C(F)(F)F)c2)nc(-c2cccc(C(F)(F)F)n2)n1 [Enasidenib]	0	0.4	0.8	0.3	0.3	0
CC[C@]1(O)C[C@@H]2CN(CCc3c([nH]c4ccccc34)[C@@](C(=O)OC)(c3cc4c(cc3OC)N(C)[C@H]3[C@@](O)(C(=O)OC)[C@H](OC(C)=O)[C@]5(CC)C=CCN6CC[C@]43[C@@H]65)C2)C1 [Vinblastine]	32.9	21.1	20.1	30.2	21.6	31
COc1cc(Br)c(Nc2nc(-c3c(C)nc4ncccn34)cs2)c(Br)c1	12.2	5.7	5.2	11.1	6.2	15.3
O=C(CCCCCCC(=O)Nc1ccc([C@H]2O[C@@H](CSc3nc(-c4ccccc4)c(-c4ccccc4)o3)C[C@@H](c3ccc(CO)cc3)O2)cc1)NO [Tubacin]	16.5	5.1	4.4	17.9	4.6	16.7
COC(=O)C[C@](O)(CCCC(C)(C)O)C(=O)O[C@@H]1C(OC)=C[C@]23CCCN2CCc2cc4c(cc2[C@H]13)OCO4 [Omacetaxine]	29.5	28.7	26.1	33.2	27.9	30.7
NC(=O)c1cccc2cn(-c3ccc([C@@H]4CCCNC4)cc3)nc12 [Niraparib]	15.5	0.2	1.4	18.8	0.4	22.1
CCC(C)n1ncn(-c2ccc(N3CCN(c4ccc(OCC5COC(Cn6cncn6)(c6ccc(Cl)cc6Cl)O5)cc4)CC3)cc2)c1=O (stereo not given) [Itraconazole]	0.9	0	1.5	4	1.7	1.4
CCOCc1nc2c(N)nc3ccccc3c2n1CC(C)(C)O [Resiquimod]	0	0	0	0	0.8	0
CCCCCOC(=O)Nc1nc(=O)n([C@@H]2O[C@H](C)[C@@H](O)[C@H]2O)cc1F [Capecitabine]	0	0	0	0	0	0
CCCOc1ccn2c(C(C)=O)cc(-c3ccccc3S(C)(=O)=O)c2c1	0	0	0	0	0	0
C[C@@]1(C(=O)Nc2ccc(F)nc2)CCCN1c1nc(Nc2cc(C3CC3)n[nH]2)c2cccn2n1	21.8	12.5	13.4	21.4	14.2	21.8
CNC(=O)c1ccccc1Sc1ccc2c(/C=C/c3ccccn3)n[nH]c2c1 [Axitinib]	17.7	5.3	1.7	10.5	5.7	17.7
CC(C)(C#N)c1cc(Cn2cncn2)cc(C(C)(C)C#N)c1 [Anastrozole]	0	0	0	0	0	0
O=C(CCCCCCNC(=O)c1cnc(N(c2ccccc2)c2ccccc2)nc1)NO [Rocilinostat]	9.7	8.8	7.6	10.5	8.2	12.8
COc1cc(OC)c(/C=C/S(=O)(=O)Cc2ccc(OC)c(NCC(=O)O)c2)c(OC)c1 [Rigosertib]	33.3	23	27.4	32.7	26.2	30.4
